Measurements from the supplement of paper PMC11417369.
± gives the standard deviation of the averaged measurements. This is one part of the list.

test system: PfAP2-EXP AP2 domain (GST-tagged); assay: gcPBM binding intensity (ln(normalized median fluorescence intensity)); higher = stronger DNA binding
Procedure, shortened: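 The binding buffer was 1× PBS containing 1% milk, 0.2 mg/ml BSA, 0.5% salmon testes DNA and 0.03% Triton X-100. In it, GST-tagged P. falciparum DNA-binding domains expressed in E. coli were applied for 1 h to an Agilent 4 × 180k array of primer-extended double-stranded 36-bp intergenic genomic probes plus negative controls. Binding intensity, read with Alexa488 anti-GST antibody and a 488 nm scan, is the highest Masliner-normalised natural-log median intensity across replicate spots of either probe orientation.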

| Sequence | gcPBM binding intensity (ln) |
| --- | --- |
| AAATTATATAAAGGAACACACATTTTATTTTATTTT [CACACA_site1500] | 8.2 ± 0.43 |
| ATAATATTGTGGTATACACACCTTACAAAAAGGTAC [CACACA_site5582] | 8.74 ± 0.3 |
| AATATTTTTATATATATACACACTTACATATATATA [CACACA_site3609] | 8.45 ± 0.54 |
| TTTTTAGTTAATTAAACACACAAAAAAAAAAATAAA [CACACA_site3930] | 8.44 ± 0.47 |
| ATTTTTTCATATTCTACACACGTGAACAAATGTGTC [CACACA_site3007] | 8.69 ± 0.36 |
| CACACGTATATATATACACACTAAAATACCCAGACA [CACACA_site6142] | 8.88 ± 0.54 |
| TATTTTTTTACATATTGTACATAATATAAAACTTAC [XGTACX_site8273] | 8.52 ± 0.38 |
| TATATTTGGTTTCATTCATTTTTATAGAAATCTCAA [CACACA_negctrl_site1412] | 8.48 ± 0.47 |
| ATATAATAGAAGTGTACACACATATTTATGGGTGTA [CACACA_site5686] | 8.55 ± 0.34 |
| AATATTTTGTTATTTATTTAATCTAATATTATGATA [GTGCAC_negctrl_site258] | 8.31 ± 0.38 |
| GTATATAATTATATATGTACTAAATAAATATTTTTA [XGTACX_site6062] | 8.29 ± 0.39 |
| AAAAAATAAAAAAATAAAAAATAAAAAATAAAAAAT [TGCATGCA_negctrl_site90] | 8.32 ± 0.53 |
| TTTTCTAAAAAAAGTTGTACATCTTATTTATATTAT [XGTACX_site295] | 8.31 ± 0.22 |
| ATGTAAGACAAAAAGGGTACATAATGCGTATGTATT [XGTACX_site4666] | 8.88 ± 0.45 |
| AAAAATTACCCATCCATACACACATATTTTTTTTAA [CACACA_site2190] | 8.65 ± 0.45 |
| TATAAAAATAAATAAATAAATAAATAAATAAATAAA [TGCATGCA_negctrl_site310] | 8.34 ± 0.54 |
| ATAAAATCATTCAATGGTACAGAAATACAAAATGTA [XGTACX_site6739] | 8.67 ± 0.37 |
| TTAACATATGACATTTTTTCACCCTTCCTTTATTTT [CACACA_negctrl_site1192] | 8.92 ± 0.45 |
| TATGTATAAAAATATTGTACATATTATATATATATA [XGTACX_site2947] | 9.58 ± 0.34 |
| AGGTCACATTTGTCCTCACACATAGATAAATATATA [CACACA_site5460] | 8.41 ± 0.42 |
| TTTTTTTTTTTTTTTTTTTGATTCTTATAAAAATTT [GTGCAC_negctrl_site240] | 7.83 ± 0.51 |
| AATTAGCATTAAAAATGTACAAAAGAAAAAAATATA [XGTACX_site3816] | 8.52 ± 0.4 |
| GTCAAAAATAATATATGTACTTATAATAGATAAATG [XGTACX_site7755] | 8.44 ± 0.3 |

| Sequence | gcPBM binding intensity (ln) |
| --- | --- |
| ATAATTTGATCAATTTTTCATTTTTCATTTTTTTAA [CACACA_negctrl_site1252] | 8.46 ± 0.51 |
| AGAAAGAATGAAAAATGTACATATATGTAATAGCTA [XGTACX_site364] | 9.01 ± 0.49 |
| TAAAATTTAAAAAGGTGTACACTATAAATTAAAATA [XGTACX_site2081] | 8.74 ± 0.37 |
| AATCAAAATTCATTAACACACAATTTTAATATTCTT [CACACA_site5178] | 8.28 ± 0.42 |
| TTTTTTAAAATATGGACACACATATATATATATGTA [CACACA_site2784] | 8.35 ± 0.37 |
| TATTTTTATAAGAGCATGCACTGTTTAAAATGGTAT | 9.54 ± 0.18 |
| ATGATATGGATAAATACACACAATAAAATAATGTCT [CACACA_site6786] | 8.71 ± 0.43 |
| TTTTAACAAAACAAAACAAAATAATATAAAGATAAC [TGCATGCA_negctrl_site154] | 9.04 ± 0.79 |
| TTTATTTATTTATGTTGTACAAGTTTATACTGGAAT [XGTACX_site6479] | 8.85 ± 0.4 |
| TTTTGATATAAAAAAAGTACATTAATAATATTAATT [XGTACX_site4248] | 8.29 ± 0.37 |
| TAAATAATAATAAATGTGCACAGGTATTAACAAAAA [GTGCAC_site9988] | 8.9 ± 0.18 |
| CAGTATTCTTCTATATGTACTTATTTAAATATTCTT [XGTACX_site7555] | 8.78 ± 0.33 |
| GTTTGGTGGTGTTTTGGTACGTACGGGGGGGTATGT [XGTACX_site1983] | 10.6 ± 0.19 |
| TTTTTTTTTTTTTATTGTACTTATTTTTTTATGTTT [XGTACX_site7725] | 8.32 ± 0.57 |
| AAATATAAAGGATTAATATTATATATATATATATAT [XGTACX_negctrl_site211] | 10.1 ± 0.32 |
| GTATTATATATATAGGTGCATATATATATATAAATA [GTGCAC_site9787] | 8.61 ± 0.26 |
| ACACATACATATACATACACATTGTTTTCATGCATC [XGTACX_negctrl_site126] | 8.8 ± 0.38 |
| TATATGTGTCTACAGGTGCATATATCATATATTGCT | 8.57 ± 0.11 |
| TATAAATATTTATACACACACATATATTTATATATC [CACACA_site6366] | 8.61 ± 0.47 |
| TAAATAAATTTATACACACACACACGGATATAAATA [CACACA_site6532] | 8.93 ± 0.45 |
| ATATTTTCTTTAAATTGTACATATTGTGATACAAAA [XGTACX_site5886] | 8.54 ± 0.42 |
| TATGTATTTTTATGCACACATGCGTGGCTTATATAA [CACACA_site387] | 9.06 ± 0.057 |
